# Data published in the supplement of paper PMC8728848.
# The other results are listed elsewhere or left out.
# B1: Angptl4 (Homo sapiens), Q9BY76 (protein)
# chain: MSGAPTAGAALMLCAATAVLLSAQGGPVQSKSPRFASWDEMNVLAHGLLQLGQGLREHAERTRSQLSALERRLSACGSACQGTEGSTDLPLAPESRVDPEVLHSLQTQLKAQNSRIQQLFHKVAQQQRHLEKQHLRIQHLQSQFGLLDHKHLDHEVAKPARRKRLPEMAQPVDPAHNVSRLHRLPRDCQELFQVGERQSGLFEIQPQGSPPFLVNCKMTSDGGWTVIQRRHDGSVDFNRPWEAYKAGFGDPHGEFWLGLEKVHSITGDRNSRLAVQLRDWDGNAELLQFSVHLGGEDTAYSLQLTAPVAGQLGATTVPPSGLSVPFSTWDQDHDLRRDKNCAKSLSGGWWFGTCSHSNLNGQYFRSIPQQRQKLKKGIFWKTWRGRYYPLQATTMLIQPMAAEAAS
# Tests used:
# Test in all cases: glycan array binding signal (z-score within array); higher = stronger binding
# Settings in all cases: glycan notation: IUPAC condensed, linker removed
# [1] = molecular target: Fuc(a1-2)[GalNAc(a1-3)]Gal(b1-4)[Fuc(a1-3)]GlcNAc
# How it was run: (§1)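 Columns mapping to the same glycan were averaged after glycan names were converted to IUPAC-condensed notation. The data come from 3228 arrays in the Consortium for Functional Glycomics database, limited to those with an available protein sequence. Binding is reported as a within-array Z-score averaged across arrays of one protein sequence and across linkers.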
# [2] = molecular target: Fuc(a1-2)[GalNAc(a1-4)]Gal(b1-4)GlcNAc
# How it was run: as §1
# [3] = molecular target: Fuc(a1-2)[GalNAc(b1-3)]Gal
# How it was run: as §1
# [4] = molecular target: Fuc(a1-3)GlcNAc
# How it was run: as §1
# [5] = molecular target: Fuc(a1-3)[Gal(b1-4)]Glc6S
# How it was run: as §1
# [6] = molecular target: Fuc(a1-3)[Gal(b1-4)]GlcNAc
# How it was run: as §1
# [7] = molecular target: Fuc(a1-3)[Gal(b1-4)]GlcNAc(b1-2)Man(a1-3)[Fuc(a1-3)[Gal(b1-4)]GlcNAc(b1-2)Man(a1-6)]Man(b1-4)GlcNAc(b1-4)GlcNAc
# How it was run: as §1
# [8] = molecular target: Fuc(a1-3)[Gal(b1-4)]GlcNAc(b1-2)Man(a1-6)[Gal(b1-4)GlcNAc(b1-2)Man(a1-3)]Man(b1-4)GlcNAc(b1-4)GlcNAc
# How it was run: as §1
# [9] = molecular target: Fuc(a1-3)[Gal(b1-4)]GlcNAc(b1-3)Gal(b1-3)[Fuc(a1-4)]GlcNAc
# How it was run: as §1
# [10] = molecular target: Fuc(a1-3)[Gal(b1-4)]GlcNAc(b1-4)Gal(b1-4)[Fuc(a1-3)]GlcNAc
# How it was run: as §1
# [11] = molecular target: Fuc(a1-3)[Gal(b1-4)]GlcNAc(b1-4)Gal(b1-4)[Fuc(a1-3)]GlcNAc(b1-4)Gal(b1-4)[Fuc(a1-3)]GlcNAc
# How it was run: as §1
# [12] = molecular target: Fuc(a1-3)[Gal(b1-4)]GlcNAc6S
# How it was run: as §1
# [13] = molecular target: Fuc(a1-3)[Gal3S(b1-4)]Glc6S
# How it was run: as §1
# [14] = molecular target: Fuc(a1-3)[Gal3S(b1-4)]GlcNAc
# How it was run: as §1
# [15] = molecular target: Fuc(a1-3)[Gal3S(b1-4)]GlcNAc6S
# How it was run: as §1
# [16] = molecular target: Fuc(a1-3)[GalNAc(b1-4)]GlcNAc
# How it was run: as §1
# [17] = molecular target: Fuc(a1-4)GlcNAc
# How it was run: as §1
# [18] = molecular target: Fuc(b1-3)GlcNAc
# How it was run: as §1
# [19] = molecular target: Gal(a1-2)Gal
# How it was run: as §1
# [20] = molecular target: Gal(a1-3)Gal
# How it was run: as §1
# [21] = molecular target: Gal(a1-3)Gal(b1-3)GlcNAc
# How it was run: as §1
# [22] = molecular target: Gal(a1-3)Gal(b1-4)Glc
# How it was run: as §1
# [23] = molecular target: Gal(a1-3)Gal(b1-4)GlcNAc
# How it was run: as §1
# [24] = molecular target: Gal(a1-3)Gal(b1-4)[Fuc(a1-3)]GlcNAc
# How it was run: as §1
# [25] = molecular target: Gal(a1-3)GalNAc
# How it was run: as §1
# [26] = molecular target: Gal(a1-3)[Gal(a1-4)]Gal(b1-4)GlcNAc
# How it was run: as §1
# [27] = molecular target: Gal(a1-4)Gal(b1-4)Glc
# How it was run: as §1
# [28] = molecular target: Gal(a1-4)Gal(b1-4)GlcNAc
# How it was run: as §1
# [29] = molecular target: Gal(a1-4)GlcNAc
# How it was run: as §1
# [30] = molecular target: Gal(a1-6)Glc
# How it was run: as §1
# [31] = molecular target: Gal(b1-2)Gal
# How it was run: as §1
# [32] = molecular target: Gal(b1-3)Gal
# How it was run: as §1
# [33] = molecular target: Gal(b1-3)Gal(b1-4)GlcNAc
# How it was run: as §1
# [34] = molecular target: Gal(b1-3)GalNAc
# How it was run: as §1
# [35] = molecular target: Gal(b1-3)GalNAc(b1-3)Gal(a1-4)Gal(b1-4)Glc
# How it was run: as §1
# [36] = molecular target: Gal(b1-3)GalNAc(b1-4)Gal(b1-4)Glc
# How it was run: as §1
# [37] = molecular target: Gal(b1-3)GalNAc(b1-4)[Neu5Ac(a2-3)]Gal(b1-4)Glc
# How it was run: as §1
binder,measurement,setting,value
B1,glycan array binding signal (z-score),[1],0.505
same,glycan array binding signal (z-score),[2],0.077
same,glycan array binding signal (z-score),[3],-0.203
same,glycan array binding signal (z-score),[4],-0.446
same,glycan array binding signal (z-score),[5],0.018
same,glycan array binding signal (z-score),[6],-0.053
same,glycan array binding signal (z-score),[7],0.691
same,glycan array binding signal (z-score),[8],2.57
same,glycan array binding signal (z-score),[9],-0.371
same,glycan array binding signal (z-score),[10],0.1
same,glycan array binding signal (z-score),[11],0.218
same,glycan array binding signal (z-score),[12],-0.527
same,glycan array binding signal (z-score),[13],-0.178
same,glycan array binding signal (z-score),[14],-0.009
same,glycan array binding signal (z-score),[15],-0.342
same,glycan array binding signal (z-score),[16],-0.127
same,glycan array binding signal (z-score),[17],2.27
same,glycan array binding signal (z-score),[18],-0.413
same,glycan array binding signal (z-score),[19],0.359
same,glycan array binding signal (z-score),[20],-0.247
same,glycan array binding signal (z-score),[21],-0.164
same,glycan array binding signal (z-score),[22],-0.187
same,glycan array binding signal (z-score),[23],-0.076
same,glycan array binding signal (z-score),[24],-0.522
same,glycan array binding signal (z-score),[25],0.668
same,glycan array binding signal (z-score),[26],-0.072
same,glycan array binding signal (z-score),[27],0.89
same,glycan array binding signal (z-score),[28],-0.437
same,glycan array binding signal (z-score),[29],-0.052
same,glycan array binding signal (z-score),[30],0.889
same,glycan array binding signal (z-score),[31],-0.226
same,glycan array binding signal (z-score),[32],0.531
same,glycan array binding signal (z-score),[33],-0.343
same,glycan array binding signal (z-score),[34],-0.105
same,glycan array binding signal (z-score),[35],-0.406
same,glycan array binding signal (z-score),[36],-0.477
same,glycan array binding signal (z-score),[37],-0.174
